According to patent US5776901A, “Polypeptide analogues having growth hormone releasing activity” (Administrators of the Tulane Educational Fund, priority 1992, dated 1998):
Values after ≈ are worked out from the molar mass of the structure shown. Values joined by “and” are separate entries in the source; they are usually repeats but may differ in a detail not shown here. Equal entries are not always repeated. Part of at least one peptide drawing is inferred or uncertain, most often the ends. Where a SMILES comes first, the peptide text is derived from it. [ ]: non-standard residue; d: D form. The star is where a group is joined. Acetyl(2-(4-imidazolyl)) = O=C(Cc1c[nH]cn1)*; d2Nal = N[C@H](Cc1ccc2ccccc2c1)C(=O)O; NH(CH2)5NH2 = NCCCCCN*; Ava = NCCCCC(=O)O; βAla = NCCC(=O)O

Legend:
[1] = tested on: serum growth hormone (GH); experiment: In vivo GH release in rats, subcutaneous injection, sacrifice at +15 minutes; design: species or system rat; conditions: Table 7, sacrifice +15 minutes, N = 6
Procedure: Immature female Sprague-Dawley rats were obtained from the Charles River Laboratories (Wilmington, Mass.). After arrival they were housed at 25° C. with a 14:10 hour light:dark cycle. Water and Purina rat chow were available ad libitum. Pups were kept with their mothers until 21 days of age.
Twenty-six day old rats, six rats per treatment group, were anesthetized interperitoneally with 50 mg/kg of pentobarbital 20 minutes prior to i.v. treatment with peptide. Normal saline with 0.1% gelatin was the vehicle for intravenous (i.v.) injections of the peptides. The anesthetized rats, weighing 55-65 grams, were injected i.v. with the quantity of growth hormone releasing compounds indicated in Table 3. Injection was made as a 0.1 mL solution into the jugular vein.
All animals were sacrificed by guillotine 10 minutes after the final test injection (see Table 3). Trunk blood for the determination of blood GH levels was collected following decapitation. After allowing the blood to clot, it was centrifuged and the serum was separated from the clot. Serum was kept frozen until the day of sampling for radioimmunoassay (RIA) determination of growth hormone levels according to the following procedure, as developed by the National Institute of Arthritis, Diabetes and Digestive and Kidney Diseases (NIADDK).
The mixed reagents are then typically incubated at room temperature (about 25° C.) for about 24 hours prior to addition of a second antibody (e.g., goat or rabbit anti-monkey gamma globulin serum) which binds to and causes precipitation of the complexed growth hormone antiserum. Precipitated contents of the RIA tubes are then analyzed for the number of counts in a specified period of time in a gamma scintillation counter. A standard curve is prepared by plotting number of radioactive counts versus growth hormone (GH) level. GH levels of unknowns are then determined by reference to the standard curve.
Serum GH was measured by RIA with reagents provided by the National Hormone and Pituitary Program.
The general procedure of Example 2 was followed except the peptides were injected subcutaneously rather than intravenously and the sacrifice time was +15 minutes rather than +10 minutes.

[2] = tested on: serum growth hormone (GH); experiment: In vivo GH release in pentobarbital anesthetized rats, i.v. injection; design: species or system rat; conditions: sacrificed 10 min after injection, N = 6
[3] = tested on: serum growth hormone (GH); experiment: In vivo GH release in rats after oral (intragastric) administration; design: species or system rat; conditions: Table 4, N = 6
[4] = tested on: serum growth hormone (GH); experiment: In vivo GH release in humans after oral administration; design: species or system human
[5] = tested on: histamine releasing activity; experiment: Rat cell histamine assay; type: cell-based; conditions: higher ED50 = less histamine release
[6] = Table 3, total dose 0.3 μg i.v., mean
[7] = Table 3, total dose 1.0 μg i.v., mean
[8] = Table 3, total dose 3.0 μg i.v., mean
[9] = Table 5, total dose 0.03 μg i.v.
[10] = Table 5, total dose 0.10 μg i.v.
[11] = Table 5, total dose 0.30 μg i.v.
[12] = Table 5, total dose 1.00 μg i.v.
[13] = Table 6, total dose 0.03 μg i.v.
[14] = Table 6, total dose 0.10 μg i.v.
[15] = Table 6, total dose 0.30 μg i.v.
[16] = Table 6, total dose 1.00 μg i.v.
[17] = 30 mg/kg intragastric, time not marked (head: 15')

| Compound | GH Released Serum GH + SEM ([1]; total dose 1.00 μg s.c.) | GH Released Serum GH + SEM ([1]; total dose .03 μg s.c.) | GH Released Serum GH + SEM ([1]; total dose .10 μg s.c.) | GH Released Serum GH + SEM ([1]; total dose .30 μg s.c.) | GH Released Serum GH [2, 6] | GH Released Serum GH [2, 7] | GH Released Serum GH [2, 8] | Serum GH ([3]; 10 mg/kg intragastric, 15') [ng/mL] | Serum GH ([3]; 10 mg/kg intragastric, 20') [ng/mL] | Serum GH [3, 17] [ng/mL] | also measured |
| --- | --- | --- | --- | --- | --- | --- | --- | --- | --- | --- | --- |
| C[C@H](N)C(=O)N[C@@H](Cc1c[nH]cn1)C(=O)N[C@H](Cc1ccc2ccccc2c1)C(=O)N[C@@H](C)C(=O)N[C@@H](Cc1ccccc1)C(=O)N[C@H](Cc1ccccc1)C(=O)N[C@@H](CCCCN)C(N)=O [Ala-His-DβNal-Ala-Phe-DPhe-Lys-NH2] (H-AH[d2Nal]AF[dF]K-NH2) | 1467 ± 208 ng/mL | 341 ± 35 ng/mL | 516 ± 118 ng/mL | 1060 ± 151 ng/mL | – | – | – | – | – | – | – |
| C[C@H](NC(=O)[C@@H](Cc1ccc2ccccc2c1)NC(=O)CCN)C(=O)N[C@@H](Cc1c[nH]c2ccccc12)C(=O)N[C@H](Cc1ccccc1)C(=O)N[C@@H](CCCCN)C(N)=O [βAla-DβNal-Ala-Trp-DPhe-Lys-NH2] (H-[βAla][d2Nal]AW[dF]K-NH2) | – | – | – | – | 1937 ng/mL | 3603 ng/mL | 4000 ng/mL | 1202 | 1217 | – | GH Released Serum GH [2, 9]: 489 ng/mL; GH Released Serum GH [2, 10]: 1112 ng/mL; GH Released Serum GH [2, 11]: 1993 ng/mL; GH Released Serum GH [2, 12]: 3061 ng/mL |
| C[C@H](NC(=O)[C@@H](Cc1ccc2ccccc2c1)NC(=O)[C@@H](C)N)C(=O)N[C@@H](Cc1c[nH]c2ccccc12)C(=O)N[C@H](Cc1ccccc1)C(=O)N[C@@H](CCCCN)C(N)=O [DAla-DβNal-Ala-Trp-DPhe-Lys-NH2] (H-[dA][d2Nal]AW[dF]K-NH2) | – | – | – | – | 2831 ng/mL | 2886 ng/mL | 3678 ng/mL | 706 | 1062 | 2038 | growth hormone levels after oral administration (comparison in words) ([4]; normal males, mean age about 25, oral 100 μg/kg GHRP-2 vs 300 μg/kg GHRP-1, RIA): higher levels of growth hormone than oral administration of 300 μg/kg of GHRP-1; effectiveness when given orally (comparison in words) ([4]; normal younger men, oral, FIG. 1, 100 μg/kg GHRP-2 vs 300 and 600 μg/kg GHRP-1): more effective than GHRP-1 when given orally; ED50 (the 50% effective dose) in a rat cell histamine assay [5]: 30.5 ± 0.5 µg/mL (≈ 37.3 µM); GH Released Serum GH ([2]; Table 3, total dose 0.1 μg i.v., mean): 1381 ng/mL; GH Released Serum GH [2, 9]: 409 ng/mL; GH Released Serum GH [2, 10]: 1006 ng/mL and 1440 ng/mL; GH Released Serum GH ([2]; Table 5, total dose 0.10 μg i.v., listed as DAla-DβNal-Ala-Trp-DPhe-LysNH2): 1469 ng/mL; GH Released Serum GH [2, 11]: 2322 ng/mL; GH Released Serum GH [2, 12]: 1825 ng/mL and 2855 ng/mL and 1755 ng/mL; GH Released Serum GH ([2]; Table 5, total dose 1.00 μg i.v., listed as DAla-DβNal-Ala-Trp-DPhe-LysNH2): 2765 ng/mL; GH Released Serum GH ([2]; Table 5, total dose 3.00 μg i.v.): 3421 ng/mL and 2527 ng/mL; GH Released Serum GH [2, 13]: 362 ng/mL; GH Released Serum GH [2, 14]: 800 ng/mL; GH Released Serum GH [2, 15]: 2674 ng/mL; GH Released Serum GH [2, 16]: 3658 ng/mL; Serum GH ([3]; 10 mg/kg intragastric, time not marked (head: 15')): 116 ng/mL |
| C[C@H](NC(=O)[C@@H](Cc1ccc2ccccc2c1)NC(=O)Cc1c[nH]cn1)C(=O)N[C@@H](Cc1ccccc1)C(=O)N[C@H](Cc1ccccc1)C(=O)N[C@@H](CCCCN)C(N)=O [IMA-DβNal-Ala-Phe-DPhe-Lys-NH2] ({Acetyl(2-(4-imidazolyl))}-[d2Nal]AF[dF]K-NH2) | 2394 ± 475 ng/mL | 181 ± 36 ng/mL | 399 ± 40 ng/mL | 808 ± 187 ng/mL | – | – | – | – | – | – | – |
| C[C@H](NC(=O)[C@@H](Cc1ccc2ccccc2c1)NC(=O)CN)C(=O)N[C@@H](Cc1c[nH]c2ccccc12)C(=O)N[C@H](Cc1ccccc1)C(=O)N[C@@H](CCCCN)C(N)=O [Gly-DβNal-Ala-Trp-DPhe-Lys-NH2] (H-G[d2Nal]AW[dF]K-NH2) | – | – | – | – | 1237 ng/mL and 1301 ng/mL and 1387 ng/mL | 2325 ng/mL and 2211 ng/mL and 1958 ng/mL | 2694 ng/mL and 2364 ng/mL and 2605 ng/mL | 957 | 1685 | 1072 | GH Released Serum GH ([2]; Table 3, total dose 10.0 μg i.v., mean): 3454 ng/mL |
| C[C@H](NC(=O)[C@@H](Cc1ccc2ccccc2c1)NC(=O)CCCCN)C(=O)N[C@@H](Cc1c[nH]c2ccccc12)C(=O)N[C@H](Cc1ccccc1)C(=O)N[C@@H](CCCCN)C(N)=O [Ava-DβNal-Ala-Trp-DPhe-Lys-NH2] (H-[Ava][d2Nal]AW[dF]K-NH2) | – | – | – | – | 2469 ng/mL | 4034 ng/mL | 3142 ng/mL | 1407 | 1251 | 2135 | GH Released Serum GH [2, 9]: 768 ng/mL; GH Released Serum GH [2, 10]: 1277 ng/mL; GH Released Serum GH [2, 11]: 1733 ng/mL; GH Released Serum GH [2, 12]: 2418 ng/mL; GH Released Serum GH [2, 13]: 768 ng/mL; GH Released Serum GH [2, 14]: 1277 ng/mL; GH Released Serum GH [2, 15]: 1733 ng/mL; GH Released Serum GH [2, 16]: 2418 ng/mL |
| C[C@H](NC(=O)[C@@H](Cc1ccccc1)NC(=O)[C@@H](C)N)C(=O)N[C@@H](Cc1ccccc1)C(=O)N[C@H](Cc1ccccc1)C(=O)N[C@@H](CCCCN)C(N)=O [DAla-DPhe-Ala-Phe-DPhe-Lys-NH2] (H-[dA][dF]AF[dF]K-NH2) | 2147 ± 268 ng/mL | 167 ± 29 ng/mL | 499 ± 62 ng/mL | 1132 ± 145 ng/mL | – | – | – | – | – | – | – |
| C[C@H](NC(=O)[C@@H](Cc1ccc2ccccc2c1)NC(=O)Cc1c[nH]cn1)C(=O)N[C@@H](Cc1c[nH]c2ccccc12)C(=O)N[C@H](Cc1ccccc1)C(=O)N[C@@H](C)C(=O)NCCCCCN [IMA-DβNal-Ala-Trp-DPhe-Ala-1,5-pentadiamine] ({Acetyl(2-(4-imidazolyl))}-[d2Nal]AW[dF]A-{NH(CH2)5NH2}) | 2660 ± 599 ng/mL | 475 ± 96 ng/mL | 916 ± 169 ng/mL | 1118 ± 243 ng/mL | – | – | – | – | – | – | – |
| C[C@H](NC(=O)[C@@H](Cc1c[nH]c2ccccc12)NC(=O)[C@@H](N)Cc1c[nH]cn1)C(=O)N[C@@H](Cc1c[nH]c2ccccc12)C(=O)N[C@H](Cc1ccccc1)C(=O)N[C@@H](CCCCN)C(N)=O [His-DTrp-Ala-Trp-DPhe-Lys-NH2, reference compound] (H-H[dW]AW[dF]K-NH2) | – | – | – | – | 751 ng/mL and 505 ng/mL | 1790 ng/mL and 1640 ng/mL | 2481 ng/mL | 1131 | 686 | 1810 | – |
| C[C@H](NC(=O)[C@@H](Cc1ccc2ccccc2c1)NC(=O)[C@@H](N)Cc1c[nH]cn1)C(=O)N[C@@H](Cc1ccccc1)C(=O)N[C@H](Cc1ccccc1)C(=O)N[C@@H](CCCCN)C(N)=O [His-DβNal-Ala-Phe-DPhe-Lys-NH2] (H-H[d2Nal]AF[dF]K-NH2) | 1374 ± 107 ng/mL | 317 ± 55 ng/mL | 348 ± 65 ng/mL | 1283 ± 258 ng/mL | – | – | – | – | – | – | – |
| C[C@H](NC(=O)[C@@H](Cc1ccc2ccccc2c1)NC(=O)[C@@H](C)N)C(=O)N[C@@H](Cc1ccccc1)C(=O)N[C@H](Cc1ccccc1)C(=O)N[C@@H](CCCCN)C(N)=O [DAla-DβNal-Ala-Phe-DPhe-LysNH2] (H-[dA][d2Nal]AF[dF]K-NH2) | 2887 ± 275 ng/mL and 2272 ± 406 ng/mL | 287 ± 62 ng/mL and 356 ± 77 ng/mL | 1084 ± 162 ng/mL and 795 ± 132 ng/mL | 1982 ± 345 ng/mL and 1564 ± 224 ng/mL | – | – | – | – | – | – | ED50 (the 50% effective dose) in a rat cell histamine assay [5]: 30.8 ± 0.3 µg/mL (≈ 39.5 µM); GH Released Serum GH [2, 13]: 366 ng/mL; GH Released Serum GH [2, 14]: 1011 ng/mL; GH Released Serum GH [2, 15]: 2361 ng/mL; GH Released Serum GH [2, 16]: 3057 ng/mL |
